Experimental findings from PMC4038944 are described below.

Test [1] deals with T1, endogenous Cep135 (human (endogenous in HEK 293T)) (UniProt Q66GS9).
T1 sequence: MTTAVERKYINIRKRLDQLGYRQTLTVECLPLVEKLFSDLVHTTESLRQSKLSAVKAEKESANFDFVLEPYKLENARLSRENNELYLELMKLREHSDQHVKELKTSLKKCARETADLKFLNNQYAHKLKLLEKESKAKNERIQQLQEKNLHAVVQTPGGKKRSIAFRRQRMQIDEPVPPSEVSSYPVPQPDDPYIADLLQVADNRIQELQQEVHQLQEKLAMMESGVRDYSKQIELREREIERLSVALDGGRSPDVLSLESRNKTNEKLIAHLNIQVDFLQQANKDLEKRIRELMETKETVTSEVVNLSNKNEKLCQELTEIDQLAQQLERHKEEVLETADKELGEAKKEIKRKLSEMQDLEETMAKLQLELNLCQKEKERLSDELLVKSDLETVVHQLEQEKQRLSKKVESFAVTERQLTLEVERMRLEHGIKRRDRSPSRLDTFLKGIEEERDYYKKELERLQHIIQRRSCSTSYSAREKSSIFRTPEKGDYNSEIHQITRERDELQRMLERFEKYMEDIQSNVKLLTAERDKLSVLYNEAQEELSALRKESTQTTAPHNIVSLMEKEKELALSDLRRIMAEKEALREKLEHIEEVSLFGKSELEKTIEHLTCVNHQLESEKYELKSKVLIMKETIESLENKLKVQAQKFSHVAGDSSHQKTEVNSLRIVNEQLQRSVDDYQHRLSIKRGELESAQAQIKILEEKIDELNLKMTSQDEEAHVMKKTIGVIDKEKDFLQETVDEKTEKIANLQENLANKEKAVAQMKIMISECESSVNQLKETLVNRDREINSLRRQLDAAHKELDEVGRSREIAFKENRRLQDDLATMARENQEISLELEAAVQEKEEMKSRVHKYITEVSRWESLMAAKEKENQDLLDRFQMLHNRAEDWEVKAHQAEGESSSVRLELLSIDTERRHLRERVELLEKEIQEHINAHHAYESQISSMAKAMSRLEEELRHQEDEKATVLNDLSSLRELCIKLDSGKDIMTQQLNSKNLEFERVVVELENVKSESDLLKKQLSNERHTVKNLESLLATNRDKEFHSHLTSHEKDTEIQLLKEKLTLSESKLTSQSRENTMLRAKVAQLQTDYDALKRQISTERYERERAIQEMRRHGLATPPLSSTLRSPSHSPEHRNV
Description: condition: only cells arrested in M phase with nocodazole or STLC; co-IP; endogenous proteins, HEK 293T cells arrested in M phase with nocodazole or STLC; lysates immunoprecipitated with anti-Cep135 or anti-C-Nap1 (pre-immune serum as control), blotted for Cep135 and C-Nap1.

The target of test [2] is T1, endogenous Cep135 (human (endogenous in HEK 293T)). Put plainly: co-IP; endogenous proteins, HEK 293T cells arrested in S phase; lysates immunoprecipitated with anti-Cep135 or anti-C-Nap1 (pre-immune serum as control), blotted for Cep135 and C-Nap1.
For test [3], the target named is Nek2A, GAL4 two-hybrid fusion (human) (UniProt P51955). Put plainly: two-hybrid; GAL4-AD (pACTII) and GAL4-DBD (pGBDU) fusions in S. cerevisiae PJ69-4A; beta-galactosidase activity relative to the Nek2A homodimer (assigned 1).
Test [4] concerns the target T2, C-Nap1 fragment E (2362–2442), GAL4 two-hybrid fusion (UniProt Q9BV73).
T2 sequence: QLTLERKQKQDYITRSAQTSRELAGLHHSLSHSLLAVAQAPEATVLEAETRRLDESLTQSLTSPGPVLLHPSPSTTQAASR
The description is as above.

In test [5] the target is T3, Myc–C-Nap1-CTD (UniProt Q9BV73).
T3 sequence: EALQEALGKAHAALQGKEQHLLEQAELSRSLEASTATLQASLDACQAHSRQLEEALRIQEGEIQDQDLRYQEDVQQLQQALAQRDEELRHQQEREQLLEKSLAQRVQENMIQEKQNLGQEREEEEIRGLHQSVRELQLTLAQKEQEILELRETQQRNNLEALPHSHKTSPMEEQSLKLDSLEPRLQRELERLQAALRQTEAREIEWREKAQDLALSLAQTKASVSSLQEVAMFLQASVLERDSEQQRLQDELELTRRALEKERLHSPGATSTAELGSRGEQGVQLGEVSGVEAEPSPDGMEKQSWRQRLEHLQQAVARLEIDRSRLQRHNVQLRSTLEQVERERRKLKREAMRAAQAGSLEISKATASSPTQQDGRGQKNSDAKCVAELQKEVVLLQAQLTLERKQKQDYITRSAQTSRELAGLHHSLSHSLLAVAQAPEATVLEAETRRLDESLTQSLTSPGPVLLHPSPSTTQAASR
Description: co-IP; GFP-tagged protein coexpressed with Myc-tagged CTD constructs in U2OS cells for 24 hours; lysates immunoprecipitated with anti-Myc, blotted with anti-Myc and anti-GFP.

For test [6], the target named is endogenous C-Nap1 (human (endogenous in HEK 293T)) (UniProt Q9BV73). Put plainly: condition: only cells arrested in M phase with nocodazole or STLC; co-IP; endogenous proteins, HEK 293T cells arrested in M phase with nocodazole or STLC; lysates immunoprecipitated with anti-Cep135 or anti-C-Nap1 (pre-immune serum as control), blotted for Cep135 and C-Nap1.
Test [7] shares this target. Put plainly: co-IP; endogenous proteins, HEK 293T cells arrested in S phase; lysates immunoprecipitated with anti-Cep135 or anti-C-Nap1 (pre-immune serum as control), blotted for Cep135 and C-Nap1.
The target of test [8] is T3, Myc–C-Nap1-CTD. Description: co-IP; HA-Cep135-CTD co-transfected with Myc-C-Nap1-CTD constructs into U2OS cells; lysates immunoprecipitated with anti-Myc (or anti-HA, panel A), blotted with anti-C-Nap1, anti-Myc or anti-HA.

These are yes or no findings as the source states them, for the method shown. For some assays here: In cells and extracts the contact can be indirect. Some results given as binding are weak or reduced against the parent protein; the word gives no strength. For some assays here: Sequences can lack the tags named with a protein.

With “endogenous C-Nap1 (from UniProt Q9BV73 1-2442)”, the binding result in test [1] is listed as “no binding”; in test [2], “binds”.

B1: Nek2A, GAL4 two-hybrid fusion (enzyme, UniProt P51955 1-445)
chain: MPSRAEDYEVLYTIGTGSYGRCQKIRRKSDGKILVWKELDYGSMTEAEKQMLVSEVNLLRELKHPNIVRYYDRIIDRTNTTLYIVMEYCEGGDLASVITKGTKERQYLDEEFVLRVMTQLTLALKECHRRSDGGHTVLHRDLKPANVFLDGKQNVKLGDFGLARILNHDTSFAKTFVGTPYYMSPEQMNRMSYNEKSDIWSLGCLLYELCALMPPFTAFSQKELAGKIREGKFRRIPYRYSDELNEIITRMLNLKDYHRPSVEEILENPLIADLVADEQRRNLERRGRQLGEPEKSQDSSPVLSELKLKEIQLQERERALKAREERLEQKEQELCVRERLAEDKLARAENLLKNYSLLKERKFLSLASNPELLNLPSSVIKKKVHFSGESKENIMRSENSESQLTSKSKCKDLKKRLHAAQLRAQALSDIEKNYQLKSRQILGMR
For B1, the binding entry in test [3] and in test [4] was “binds” each time.

B2: GFP–Nek2A (enzyme, UniProt P51955 1-445)
chain: B1 chain
Turning to B2, in test [5], the binding entry is “binds”.

B3: endogenous Cep135 (protein, UniProt Q66GS9 1-1140)
chain: T1 sequence
Consider B3, for which the binding entry in test [6] is listed as “no binding”; in test [7], “binds”.

B4: HA–Cep135-CTD (648–1141) (domain or fragment, UniProt Q66GS9 648-1140)
chain: QAQKFSHVAGDSSHQKTEVNSLRIVNEQLQRSVDDYQHRLSIKRGELESAQAQIKILEEKIDELNLKMTSQDEEAHVMKKTIGVIDKEKDFLQETVDEKTEKIANLQENLANKEKAVAQMKIMISECESSVNQLKETLVNRDREINSLRRQLDAAHKELDEVGRSREIAFKENRRLQDDLATMARENQEISLELEAAVQEKEEMKSRVHKYITEVSRWESLMAAKEKENQDLLDRFQMLHNRAEDWEVKAHQAEGESSSVRLELLSIDTERRHLRERVELLEKEIQEHINAHHAYESQISSMAKAMSRLEEELRHQEDEKATVLNDLSSLRELCIKLDSGKDIMTQQLNSKNLEFERVVVELENVKSESDLLKKQLSNERHTVKNLESLLATNRDKEFHSHLTSHEKDTEIQLLKEKLTLSESKLTSQSRENTMLRAKVAQLQTDYDALKRQISTERYERERAIQEMRRHGLATPPLSSTLRSPSHSPEHRNV
B4: the binding result in test [8] is reported as “binds”.
